# Some of the results follow.
# Test system: T1, C. trachomatis L2/434/Bu expressing GFP (CTL2-GFP)
# T1 construct: L2/434/Bu GFP intracellular growth in HeLa cells
# Design: species or system HeLa; C. trachomatis total inclusion area by high-content imaging, normalised to DMSO
# Settings: total inclusion area; 28.5 h, 10 µM; inhibitor
# How it was run: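 Host cell viability was gauged from Hoechst-stained nuclei counts, while chlamydial growth was taken from total inclusion area and inclusion number per well. Cells were fixed and imaged by high-content microscopy once bulk GFP and resorufin fluorescence had been measured.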
row,SMILES,% of control remaining
1,Cc1ccc(Cl)cc1NC(=O)C1CC(=O)N(Cc2ccccn2)C1 (centres unmarked) [CBK305561],92.1915
2,c1csc(CNc2c(-c3cccs3)nc3cnccn23)c1 [CBK283685],92.6517
3,Nc1cc(C(=O)c2ccc(Br)c(N)c2)ccc1Cl [CBK269708],99.8262
4,COc1ccc(C(NC(=O)NNC(=O)Cc2ccc(Cl)cc2)c2ccccc2C)cn1 (centres unmarked) [CBK083660],76.2386
5,CC(=O)Nc1ccc(S(=O)(=O)N2CCN(C(=O)COc3ccc(C)cc3)CC2)cc1 [CBK264268],95.2661
6,NCCCNC(=O)c1ccc(-c2cccc(C(F)(F)F)c2)o1 [CBK107454],96.762
7,O=[N+]([O-])c1ccc(CN2CCC(Oc3cncc(OCCN4CCOCC4)n3)C2)cc1 (centres unmarked) [CBK084485],98.7814
8,O=S(=O)(O)CCCSc1nc2ccccc2s1 [CBK260900N],80.7513
9,CCCCc1c(C)nc2ccc(Br)cc2c1SCCC(=O)O [CBK126915],104.577
10,CCc1nnc(N/N=C/c2cccs2)n1N [CBK026233C],56.4356
11,Cn1nc(C2CCCN(C(=O)C3CC3)C2)c2cccnc21 (centres unmarked) [CBK282654],109.667
12,N=C1NC(=O)C(CC(=O)Nc2cccc([N+](=O)[O-])c2)S1 (centres unmarked) [CBK263944],98.4593
13,Cc1nn(C)cc1S(=O)(=O)N1CCCC(c2cccc(Cc3ccccc3Cl)n2)C1 (centres unmarked) [CBK286127],112.171
14,Cc1ccc(-c2ccc(CCC(=O)O)n2NC(=O)c2ccc([N+](=O)[O-])cc2)cc1 [CBK264776],116.422
15,O=C(O)COCc1nn(-c2ccc(Br)cc2)c2c1CCCC2 [CBK016404],23.9803
16,O=C(Nc1cccc(C(F)(F)F)c1)N[C@H]1CO[C@H]2[C@@H]1OC[C@H]2O [CBK289476],93.038
17,COCCN(Cc1cnn(C)c1)C(=O)Cc1ccc(Cl)cc1 [CBK307407],70.2694
18,CC(C)OC(=O)c1cc2c(ccn2-c2ccc(F)cc2)n1CCC#N [CBK123921],82.9873
19,Cc1n[nH]c(NCc2cccc(Cl)c2Cl)n1 [CBK288037],91.8742
20,COC(C)(C)C(=O)N1CCCC(c2ccc(Cc3cccc(C(F)(F)F)c3)cn2)C1 (centres unmarked) [CBK286124],89.8811
21,COc1ccc2[nH]cc(CCNC(=O)c3ccc(NC(C)=O)cc3)c2c1 [CBK269296],92.9101
22,Cc1ccn(-c2ccc(N3CCC4(CC3)OCCO4)nn2)n1 [CBK305263],55.1936
23,CN(C)c1nc(N)nc(COc2ccccc2F)n1 [CBK288236],89.147
24,Cc1ccccc1Sc1ccc(C(F)(F)F)cn1 [CBK115237],93.3839
25,O=S(=O)(Cc1csc(N2CCOCC2)n1)c1ccccn1 [CBK011137],76.7759
26,O=C(O)C1CCN(c2cncc(-c3ccc4ccccc4c3)n2)CC1 [CBK065801],103.069
27,O=S1(=O)CCN(Cc2ccc3c(c2)OCCCO3)CC1 [CBK074831],91.2268

row,SMILES,% of control remaining
1,CSc1ncc(Cl)c(C(=O)Nc2nc(-c3ccc(S(=O)(=O)N4CCCCCC4)cc3)cs2)n1 [CBK268785],100.068
2,COC(=O)c1cn([C@H]2CO[C@H]3[C@@H]2OC[C@@H]3NC(=O)NC2CCCCC2)nn1 [CBK289499],115.331
3,CCOC(=O)COc1cccc(/C=C2/SC(=S)N(c3cccc(C(=O)O)c3)C2=O)c1 [CBK265589],97.9106
4,Cc1ccccc1C(=O)N1CCC(O)(Cn2ccnc2C)CC1 [CBK284950],104.42
5,CCOC(=O)c1cnn2c(O)cc(CN3CCc4ccccc4C3)nc12 [CBK305679],80.1714
6,Cc1ccccc1-c1ccc(C(=O)N(C)CCN(C)C)c(N(C)C)n1 [CBK106090],93.6853
7,O=S(=O)(Nc1ncc(Br)c2cccnc12)c1ccc(Oc2ccccc2)cc1 [CBK073886],90.8996
8,CC(C)(C)OC(=O)NCCCn1cc(C(=O)O)nn1 [CBK287028],90.1745
9,COc1ccc(NC(=O)CSc2nc(N)n[nH]2)cc1Cl [CBK268065],92.1852
10,CCOC(=O)c1c(NC(=O)C2CCCN2S(=O)(=O)c2ccccc2)sc2c1CCCC2 (centres unmarked) [CBK265012],84.5711
11,O=C(NC1CCCc2c1cnn2Cc1ccccc1)c1ccncc1 (centres unmarked) [CBK282250],96.8293
12,O=C(NC(c1ccccc1)c1ccco1)C1CCN(CCN2C(=O)c3ccccc3C2=O)CC1 (centres unmarked) [CBK148297],99.1493
13,CC1(C)NC(=O)N(CC(O)COc2ccc([N+](=O)[O-])cc2)C1=O (centres unmarked) [CBK262840],90.3511
14,CCN1C(=O)CC2(C1=O)C(=O)N(CCCOc1ccccc1)c1ccc(OC)cc12 (centres unmarked) [CBK075585],107.019
15,NS(=O)(=O)c1ccc(CCNC(=O)/C=C/c2ccccc2[N+](=O)[O-])cc1 [CBK265709],92.3183
16,Cc1ccc(CN(CCCn2ccnc2)Cc2ccccc2O)o1 [CBK283189],109.899
17,COc1ccc(C)cc1NC(=O)CN(c1ccc(F)cc1)S(=O)(=O)c1ccc(C)cc1 [CBK264122],88.4176
18,CNCCCC1(c2ccccc2)SC(C)(C)c2ccccc21 (centres unmarked) [CBK015933C],18.6703
19,COc1ccc(-c2noc([C@@H]3C[C@@H](O)CN3C3CCOCC3)n2)cc1 [CBK288844],113.164
20,CCCNc1cncc(-c2cccc(O)c2)n1 [CBK065447],87.2824
21,Cc1sc(NC(=S)NC(=O)C2CCCCC2)c(C(N)=O)c1C [CBK266273],99.5585
22,CC(C)Nc1cncc(OCCN2CCOCC2)n1 [CBK115599],99.6148
23,Cn1c2ccccc2c2cc(C(O)(CC(=O)CC(O)(c3ccc4c(c3)c3ccccc3n4C)C(F)(F)F)C(F)(F)F)ccc21 (centres unmarked) [CBK262254],85.6844
24,COc1ccc2[nH]c3c(c2c1)CCNC31CCN(C(=O)COc2ccccc2)C1 (centres unmarked) [CBK061661],97.7356
25,Cn1nnnc1SCCNCc1ccc2c(c1)n(C)c(=O)n2C [CBK270080C],102.969
26,O=C(c1c(F)cccc1F)N1CCC(O)(c2ccccn2)CC1 [CBK283670],75.4142
27,Cc1nc(CN2CCC(O)(c3ccccc3F)CC2)c2ccccn12 [CBK282799],139.502

row,SMILES,% of control remaining
1,O=C(Nc1ccc(S(=O)(=O)N2CCCC2)cc1)C1CC(=O)N(Cc2ccco2)C1 (centres unmarked) [CBK297500],100.122
2,O=C1CCCN1CCCNC(=O)C1(c2ccccc2)COc2ccccc21 (centres unmarked) [CBK017653],99.2104
3,O=c1c2nnc3ncnn3c2ccn1-c1ccccc1 [CBK288075],83.6219
4,CC1CCN(c2nc3nonc3nc2Nc2ccc3c(c2)OCO3)CC1 [CBK077551],52.6612
5,COC(=O)NC(O)C(=O)c1cccs1 (centres unmarked) [CBK027755],89.6181
6,O=S(=O)(NCc1ccccc1)N1CCCCCC1 [CBK269569],96.5791
7,O=c1n(-c2cccc(C(F)(F)F)c2)ccn1S(=O)(=O)c1ccc(Cl)c(Cl)c1 [CBK106579],98.2979
8,CC1CCCCN1CC(=O)Nc1ccccc1Oc1ccccc1 (centres unmarked) [CBK023182C],69.5726
9,O=C(CCC1COc2ccccc2O1)Nc1ccc(C(=O)O)cc1 (centres unmarked) [CBK269856],85.2789
10,O=C(Nc1nccs1)c1cccc(Cl)c1Cl [CBK058011],59.2126
11,Cc1nccn1CC1(O)CCN(Cc2c[nH]c3ccccc23)CC1 [CBK282671],108.16
12,COc1ccc(OCC(=O)N/N=C\c2c(OC)ccc3ccccc23)c(Br)c1 [CBK261235],76.3948
13,O=C1N=C(NC2CCCCCC2)SC1Cc1ccc(O)cc1 (centres unmarked) [CBK067868],23.0649
14,c1ccc(-c2nc3ccc(Cc4ccc5nc(-c6ccccn6)c(-c6ccccn6)nc5c4)cc3nc2-c2ccccn2)nc1 [CBK261975],111.884
15,CC(=O)Nc1ccc(S(=O)(=O)NCCCc2ccccc2)cc1 [CBK265488],90.2253
16,CC1(C)OCc2nc(C(O)C(C)(C)C)ccc2O1 (centres unmarked) [CBK005386],45.0148
17,COc1ccc(OCc2nnn[nH]2)cc1 [CBK270000],92.8115
18,CN(C)CCN1C(=O)C(O)=C(C(=O)c2ccco2)C1c1ccc([N+](=O)[O-])cc1 (centres unmarked) [CBK264486],83.4447
19,CN(Cc1cc(Br)cs1)C(=O)CCN1C(=O)COc2ccccc21 [CBK298308],84.5812
20,O=C1CC(C(=O)Nc2ccccc2)n2cnnc2N1 (centres unmarked) [CBK287980],74.9545
21,COc1ccccc1-c1ccccc1CC1(C(=O)NCc2cccc(F)c2)CCOCC1 [CBK286426],93.9765
22,O=C(Cc1cn2ccsc2n1)NCCS(=O)(=O)N1CCc2ccccc21 [CBK304282],89.3517
23,O=[N+]([O-])c1ccc(CN2CCC(Oc3cncc(OCC4COc5ccccc5O4)n3)C2)cc1 (centres unmarked) [CBK084369],83.6181
24,CCN(CC)S(=O)(=O)c1ccc(C)c(C(=O)Oc2cccc(-c3cnc4ccccc4n3)c2)c1 [CBK264577],102.525
25,COc1ccc(-c2cnc3[nH]c(=O)n(CC(C)(C)CO)c3n2)c(OC)c1OC [CBK064833],125.779
26,COCC1(C)NC(=O)N(Cc2nn(-c3ccccc3)c3c2CCC3)C1=O (centres unmarked) [CBK306483],92.1021

# Source: PMC12040169 (PLOS Biology, 2025)
